Reference: patent publication US20260284186A1, “[…] MODIFIERS FOR THE TREATMENT OF SUBJECTS WITH UNDER[…] SYSTEMS AND COMPOSITIONS THEREOF” (priority 2023, published 2026)

Tested on: SARS-COV-2 RBD
Experiment: Effect of different CDNs on the biological response, Example 10
Parameters: species or system mice
Details: mouse, in vivo

Compound	Order of intensity of antibody response, avidity/inhibition and neutralization against SARS-COV-2
O=c1[nH]cnc2c1ncn2[C@@H]1O[C@@H]2COP(=O)(O)O[C@H]3[C@@H](O)[C@H](n4cnc5c(=O)[nH]cnc54)O[C@@H]3COP(=O)(O)O[C@H]2[C@H]1O [c-di-IMP]	2
Nc1ncnc2c1ncn2[C@@H]1O[C@@H]2COP(=O)(O)O[C@H]3[C@@H](O)[C@H](n4cnc5c(N)ncnc54)O[C@@H]3COP(=O)(O)O[C@H]2[C@H]1O [CDA, cyclic bis(3′-5′) diadenylic acid]	superior responses
Nc1ncnc2c1ncn2C1OC2COP(=O)(O)OC3C(COP(=O)(O)OC2C1O)OC(n1cnc2c(=O)[nH]cnc21)C3O (stereo not drawn) [c-IAMP]	3
